Data published in the supplement of paper PMC9446081.
Hit rate of the full screen: of about 39,000 compounds, about 220 (0.56%) showed activity. The list shows a part of the results.

system: Escherichia coli K-12 BW25113; assay: relative growth (OD600 normalised to plate interquartile mean) (fraction); higher = less growth inhibition, active = 0.2 or less; conditions: 50 µM; LB; incubation time: overnight (16-24 h)
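Also: static incubation at 37 °C against the wild-type strain, values averaged over two biological replicates.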

Row | SMILES | relative growth
1 | C[C@@H]1CN([C@@H](C)CO)S(=O)(=O)c2ccc(C#CC3(O)CCCC3)cc2O[C@@H]1CN(C)C(=O)Nc1cccc(F)c1 | inactive: 1.04
2 | COc1ccc2c3c(n(c2c1)C)[C@@H](CO)N(Cc1ccccc1Cl)C[C@]13CCN(CC1)C(=O)CC1CC1 | inactive: 1.02
3 | NC(=O)c1nc2c(s1)CCNCC2 | inactive: 1.02
4 | C[C@@H]1CN([C@@H](C)CO)C(=O)c2cc(NC(=O)c3ccncc3)ccc2O[C@@H]1CN(C)Cc1ccc(Oc2ccccc2)cc1 | inactive: 1.01
5 | C[C@@H]1CCCCO[C@@H](CN(C)C(=O)Nc2ccc3c(c2)OCO3)[C@@H](C)CN([C@H](C)CO)C(=O)c2cc(NS(=O)(=O)c3ccc(Cl)cc3)ccc2O1 | inactive: 1.04
6 | N=C(N)N | inactive: 1.01
7 | O=C(O)c1cccc(C(=O)O)n1 | inactive: 0.891
8 | COc1ccc(CN(C)C[C@@H]2Oc3c(NC(=O)Nc4ccc(C(F)(F)F)cc4)cccc3C(=O)N([C@H](C)CO)C[C@H]2C)cc1 | inactive: 0.873
9 | C[C@@H]1CCCCO[C@@H](CN(C)S(=O)(=O)c2ccc(F)cc2)[C@@H](C)CN([C@@H](C)CO)C(=O)c2cc(NC(=O)Nc3ccc(F)cc3)ccc2O1 | inactive: 1.05
10 | C[C@H]1CCCCO[C@@H](CN(C)C(=O)Nc2ccc(F)cc2)[C@@H](C)CN([C@@H](C)CO)C(=O)c2cc(NS(=O)(=O)c3ccc(F)cc3)ccc2O1 | inactive: 1
11 | Cc1noc(C)c1S(=O)(=O)Nc1ccc2c(c1)C(=O)N([C@@H](C)CO)C[C@@H](C)[C@H](CN(C)C(=O)Nc1ccccc1)OCCCC[C@@H](C)O2 | inactive: 1
12 | CO[C@@H]1CN(C)C(=O)c2cc(NS(=O)(=O)c3ccccc3)ccc2OC[C@@H](C)N(C(=O)NC(C)C)C[C@H]1C | inactive: 1.01
13 | Cc1cnc(N2C[C@H]3COC[C@@H]3C2)nc1 | inactive: 0.977
14 | Cl.O=C(c1ccc(OCCN2CCCCC2)cc1)c1c(-c2ccc(O)cc2)sc2cc(O)ccc12 | inactive: 1.09
15 | Cc1ccc(S(=O)(=O)Nc2ccc3c(c2)C(=O)N([C@H](C)CO)C[C@H](C)[C@H](CN(C)Cc2ccc(Cl)c(Cl)c2)OCCCC[C@@H](C)O3)cc1 | inactive: 1.06
16 | OC[C@@]1(O)CO[C@@H](OC[C@H]2O[C@@H](OCCc3ccc(O)cc3)[C@H](O)[C@@H](O)[C@@H]2O)[C@@H]1O | inactive: 0.985
17 | COc1[nH]sc(=NN)c1C#N | inactive: 0.98
18 | C[C@H]1CCCCO[C@H](CN(C)C(=O)Nc2ccc(C(F)(F)F)cc2)[C@@H](C)CN([C@@H](C)CO)C(=O)c2cc(N(C)C)ccc2O1 | inactive: 0.976
19 | COc1ccc(S(=O)(=O)Nc2ccc3c(c2)C(=O)N([C@H](C)CO)C[C@H](C)[C@@H](CN(C)C(=O)Nc2cccc4ccccc24)OCCCC[C@@H](C)O3)cc1 | inactive: 0.998
20 | C[C@H]1CN([C@@H](C)CO)S(=O)(=O)c2ccc(C3=CCCCC3)cc2O[C@H]1CN(C)Cc1cncnc1 | inactive: 1.02
21 | COc1ccc(NC(=O)Nc2ccc3c(c2)C(=O)N([C@@H](C)CO)C[C@@H](C)[C@H](CN(C)S(=O)(=O)c2ccccc2)OCCCC[C@@H](C)O3)cc1 | inactive: 1.03

Row | SMILES | relative growth
22 | COc1ccc(S(=O)(=O)N(C)C[C@@H]2Oc3ccc(N(C)C)cc3C(=O)N([C@H](C)CO)C[C@H]2C)cc1 | inactive: 1.01
23 | C[C@H](CO)N1C[C@H](C)[C@H](CN(C)Cc2ccccc2)Oc2c(NS(=O)(=O)c3cn(C)cn3)cccc2C1=O | inactive: 0.989
24 | CC1=C(C(=O)OCCN(Cc2ccccc2)c2ccccc2)[C@@H](c2cccc([N+](=O)[O-])c2)C(P2(=O)OCC(C)(C)CO2)=C(C)N1.CCO.Cl | inactive: 1.05
25 | C[C@H](CO)N1C[C@H](C)[C@H](CN(C)Cc2ccncc2)Oc2ccc(NC(=O)c3ccncc3)cc2C1=O | inactive: 1.01
26 | CS(=O)(=O)Nc1cccc(C2=NN(c3nc(-c4ccccc4)c4cc(Cl)ccc4n3)[C@H](c3ccco3)C2)c1 | inactive: 1
27 | Cc1ccc(S(=O)(=O)Nc2ccc3c(c2)C(=O)N([C@@H](C)CO)C[C@H](C)[C@H](CN(C)Cc2ccc(Oc4ccccc4)cc2)O3)cc1 | inactive: 0.976
28 | C[C@@H]1CN([C@H](C)CO)C(=O)Cc2cc(NS(=O)(=O)c3cn(C)cn3)ccc2O[C@H]1CN(C)S(=O)(=O)c1ccc(Cl)cc1 | inactive: 1.03
29 | C[C@@H]1CCCCO[C@H](CN(C)S(=O)(=O)c2ccccc2)[C@H](C)CN([C@@H](C)CO)C(=O)c2cc(NC(=O)Nc3ccc(C(F)(F)F)cc3)ccc2O1 | inactive: 1
30 | COc1ccc(C#Cc2ccc([C@H]3[C@@H](CO)N4CCCCN(S(=O)(=O)c5cn(C)cn5)C[C@@H]34)cc2)cc1 | inactive: 0.967
31 | C=C[C@@H]1[C@@H](O[C@@H]2O[C@H](CO)[C@@H](O)[C@H](O)[C@@H]2O)OC=C(C(=O)O)[C@H]1CC(=O)O | inactive: 0.984
32 | C[C@H](CO)N1C[C@H](C)[C@H](CN(C)S(=O)(=O)c2ccc(Cl)cc2)Oc2c(NS(C)(=O)=O)cccc2C1=O | inactive: 0.859
33 | NC(=O)CSCC(=O)Nc1ccccc1F | inactive: 1.02
34 | Cc1noc(C)c1S(=O)(=O)Nc1ccc2c(c1)CC(=O)N([C@H](C)CO)C[C@H](C)[C@@H](CN(C)C(=O)NC1CCCCC1)O2 | inactive: 0.995
35 | C[C@H]1CN([C@@H](C)CO)C(=O)c2cc(NC(=O)CCCN(C)C)ccc2O[C@@H]1CN(C)Cc1ccncc1 | inactive: 0.987
36 | CN(C)CCCNC(=O)C[C@@H]1CC[C@H]2[C@@H](COC[C@H](O)CN2S(=O)(=O)c2ccc(F)cc2)O1 | inactive: 1.01
37 | Cc1cc(NS(=O)(=O)c2ccc(N)cc2)no1 | inactive: 0.972
38 | Cc1ccc(-c2nc(Nc3cccc(Cl)c3)sc2C)cc1 | inactive: 0.972
39 | Cc1ccc(S(=O)(=O)Nc2ccc3c(c2)C(=O)N([C@H](C)CO)C[C@@H](C)[C@H](CN(C)Cc2ccc(Cl)c(Cl)c2)O3)cc1 | inactive: 1.02
40 | O=C(O)CNc1ccc(C(=O)O)cc1 | inactive: 0.998
41 | COc1ccc(NC(=O)N(C)C[C@@H]2OCCCC[C@@H](C)Oc3ccc(NS(=O)(=O)c4ccccc4)cc3C(=O)N([C@@H](C)CO)C[C@H]2C)cc1 | inactive: 1.02
42 | CCCNC(=O)Nc1ccc2c(c1)OC[C@@H](C)N(C(=O)C1CCOCC1)C[C@H](C)[C@H](OC)CN(C)C2=O | inactive: 0.994

Row | SMILES | relative growth
43 | O=C(O)c1cc2cccnc2[nH]c1=O | inactive: 0.978
44 | O=C(O)CC(CC(=O)O)C(=O)O | inactive: 0.992
45 | C[C@H]1CN([C@@H](C)CO)C(=O)Cc2cc(NS(=O)(=O)c3cn(C)cn3)ccc2O[C@@H]1CN(C)S(=O)(=O)c1ccc(Cl)cc1 | inactive: 0.954
46 | COc1ccc(CN(C)C[C@@H]2OCCCC[C@@H](C)Oc3ccc(NC(=O)Nc4cccc5ccccc45)cc3C(=O)N([C@@H](C)CO)C[C@@H]2C)cc1 | inactive: 1
47 | CN1C(=O)c2cc(NS(=O)(=O)c3cccc(F)c3)ccc2OC[C@H]2O[C@@H](CC(=O)NCCN3CCCCC3)CC[C@H]21 | inactive: 0.99
48 | C[C@@H]1CN([C@H](C)CO)C(=O)c2ccccc2-c2ccccc2CO[C@H]1CN(C)C(=O)Nc1cccc(Cl)c1Cl | inactive: 1.01
49 | COc1cc(CO)cc(I)c1O[C@H]1C=C(C(=O)NCCO)C[C@@H](NCc2ccc(F)cc2)[C@@H]1O | inactive: 1
50 | CN(C)CC(=O)NS(=O)(=O)c1ccccc1 | inactive: 0.998
51 | COc1ccc(S(=O)(=O)Nc2ccc3c(c2)C(=O)N([C@H](C)CO)C[C@H](C)[C@H](CN(C)C(=O)NC2CCCCC2)OCCCC[C@H](C)O3)cc1 | inactive: 0.995
52 | C[C@H]1CN([C@@H](C)CO)C(=O)c2cc(NC(=O)NC3CCCCC3)ccc2O[C@H]1CN(C)C(=O)Nc1cccc2ccccc12 | inactive: 1.03
53 | C[C@@H]1CN([C@H](C)CO)C(=O)Cc2cc(NS(=O)(=O)c3ccc(Cl)cc3)ccc2O[C@H]1CN(C)C(=O)Nc1cccc2ccccc12 | inactive: 1.02
54 | C[C@@H]1CCCCO[C@@H](CN(C)C(=O)Nc2ccc3c(c2)OCO3)[C@H](C)CN([C@@H](C)CO)C(=O)c2cc(NS(=O)(=O)c3ccccc3)ccc2O1 | inactive: 1.03
55 | COc1cccc(S(=O)(=O)Nc2ccc3c(c2)[C@H]2C[C@@H](CC(=O)NCc4cccc(F)c4)O[C@H](CO)[C@H]2O3)c1 | inactive: 1.01
56 | CC(C)NC(=O)Nc1cccc2c1O[C@@H](CN(C)S(=O)(=O)c1ccccc1)[C@H](C)CN([C@H](C)CO)C2=O | inactive: 1
57 | Cc1ccc(S(=O)(=O)Nc2ccc3c(c2)C(=O)N([C@@H](C)CO)C[C@@H](C)[C@@H](CN(C)C(=O)c2ccccc2)OCCCC[C@H](C)O3)cc1 | inactive: 1.02
58 | C[C@H](CO)N1C[C@H](C)[C@@H](CN(C)Cc2ccc(Oc3ccccc3)cc2)Oc2ccc(NC(=O)C3CCCCC3)cc2CC1=O | inactive: 1
59 | COc1ccc(S(=O)(=O)Nc2cccc3c2O[C@H](CN(C)S(=O)(=O)c2cn(C)cn2)[C@@H](C)CN([C@H](C)CO)C3=O)cc1 | inactive: 1.01
60 | Nc1nc(=O)c2c([nH]1)NC[C@H](CNc1ccc(C(=O)N[C@@H](CCC(=O)O)C(=O)O)cc1)N2C=O | inactive: 0.993
61 | COc1ccc(NC(=O)N(C)C[C@H]2Oc3ncc(C#C[C@@H](C)O)cc3C(=O)N([C@H](C)CO)C[C@@H]2C)cc1 | inactive: 0.961
62 | Cc1ccc(S(=O)(=O)Nc2ccc3c(c2)C(=O)N([C@@H](C)CO)C[C@H](C)[C@H](CN(C)C(=O)c2ccccc2)OCCCC[C@@H](C)O3)cc1 | inactive: 0.983
